Out of some 1,000 compounds screened, about 360 (36%) were called active.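 How the source made its calls: active means Fitted curve of melting temperature shift crosses the 1.0 threshold at or below the sample's highest valid tested concentration; inconclusive means Flat fit with activity 30 to 70, or invalid fit; inactive means Opposite direction, flat within 30, or no crossing.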 Most of the strongest results are missing from this list.

In the assay the target is Fibroblast growth factor 22 (Homo sapiens) (UniProt Q9HCT0). Kind of assay: FGF22 ligand-induced thermal stabilization – biophysical, thermal shift, cherry-pick, FGF22 synaptogenesis inhibitor project, dose response (AID 687022). Further: reference of the scale not given here. Particulars: recombinant FGF22 thermal shift, SYPRO orange melting; at 38 µM (top of the series) unless noted.
UniProt Q9HCT0, sequence (Q9HCT0 whole entry, looked up): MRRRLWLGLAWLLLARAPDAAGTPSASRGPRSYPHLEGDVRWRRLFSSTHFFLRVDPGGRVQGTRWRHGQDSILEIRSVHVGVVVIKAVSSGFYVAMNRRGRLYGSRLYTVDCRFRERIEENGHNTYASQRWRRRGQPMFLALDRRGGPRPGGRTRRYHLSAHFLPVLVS
For `COc1cc(NC(=O)c2cccs2)c(OC)cc1NC(=O)Nc1ccc(F)cc1`, the Tm shift activity was inactive: 0.771%.

On to `CO[C@@H]1CN(C)C(=O)c2ccc(NC(C)=O)cc2OC[C@@H](C)N(C(=O)Cc2ccccn2)C[C@H]1C`, for which the Tm shift activity was inactive: -0.462% [at 42 µM].

As for `Cc1cc(C)cc(N(CC(=O)NC2CCC(C)CC2)S(=O)(=O)c2c(C)noc2C)c1` (configuration not stated), the Tm shift activity was inactive: -0.238%.

On to `CCOc1ccc(C(=O)CCC(=O)Nc2ccc(C)cn2)cc1`, for which the Tm shift activity is inactive: 0.045%.

For `Cc1ccc(S(=O)(=O)N2C[C@]3(O)C[C@@H]4C(=O)N(c5ccccc5)C(=O)[C@@H]4C[C@]3(OC(=O)NCC3CCCCC3)C2)cc1`, the Tm shift activity is inactive: -0.138%.

With `CC(C)c1ccc(NC2CCCN(C(=O)c3cc(C(C)C)[nH]n3)C2)cc1` (configuration not stated), the Tm shift activity was inactive: -0.278%.

For the compound `COc1ccc(NS(=O)(=O)c2cc(N=Nc3c(O)[nH]c(=O)[nH]c3=O)ccc2Cl)cc1`, the Tm shift activity was inactive: -0.202%.

Regarding `CCOC(=O)C1CCC(CNCc2ccccc2C)CC1` (configuration not stated), the Tm shift activity is inactive: 0.003%.

On to `Cc1cc(C(=O)Nc2cccc3ccccc23)n(-c2ccccc2)n1`, for which the Tm shift activity is inactive: -0.131%.

On to `COCC(=O)N1CC2(C1)[C@H](c1ccccc1)[C@@H](CO)N2C(=O)NC1CCCC1`, for which the Tm shift activity is inactive: 0.301%.

As for `CNC(=O)C[C@H]1CC[C@@H]2[C@H](COc3ccc(NC(=O)c4ccccc4OC)cc3C(=O)N2C)O1`, the Tm shift activity is inactive: -0.067%.

`CCCN(CCC)CC(C)(C)NS(=O)(=O)c1ccc(Cl)cc1`: the Tm shift activity is inactive: 0.103%.

On to `CC(=O)c1ccc(NS(=O)(=O)c2ccc(N)cc2)cc1`, for which the Tm shift activity was inactive: -0.172%.

`O=Cc1cc(N=Nc2cccc(C(=O)O)c2)ccc1O`: the Tm shift activity is inactive: 0.763%.

In the case of `CC(C)C#Cc1cnc2c(c1)C(=O)N([C@H](C)CO)C[C@H](C)[C@H](CN(C)C(=O)c1cnccn1)O2`, the Tm shift activity was inactive: -0.112% [at 42 µM].

Regarding `O=C(N/N=C/c1cccc(O)c1)c1cc(-c2ccc3c(c2)OCO3)n[nH]1`, the Tm shift activity is inactive: 0.613%.

With `COc1ccc(NC(=O)CN(c2ccc(C(C)C)cc2)S(=O)(=O)c2c(C)noc2C)cc1OC`, the Tm shift activity is inactive: -0.176%.

With `CCCN(C)C[C@H]1Oc2cc(C#Cc3ccc(F)cc3)ccc2S(=O)(=O)N([C@H](C)CO)C[C@@H]1C`, the Tm shift activity was inactive: 0.464%.

Take `CCc1ccc(NC(=O)c2ccc(-n3cncn3)c([N+](=O)[O-])c2)cc1`: the Tm shift activity is inactive: 0.367%.

As to `C[C@@H]1CN([C@@H](C)CO)C(=O)c2cc(NC(=O)Cc3cn(C)c4ccccc34)ccc2O[C@H]1CN(C)S(C)(=O)=O`, the Tm shift activity is inactive: -1.54% [at 42 µM].

Regarding `CN1CCN(C(=O)C[C@@H]2CC[C@H]3[C@@H](COC[C@H](O)CN3CC3CCCCC3)O2)CC1`, the Tm shift activity is inactive: 0.165%.

Turning to `CCNC(=O)C1(C)CCN(Cc2ccc(OC(F)(F)F)cc2)C1` (configuration not stated), the Tm shift activity is inactive: -0.221%.

Take `O=C(C(=O)N1CCN(C/C=C/c2ccccc2)CC1)c1ccccc1`: the Tm shift activity was inactive: -0.145%.

With `COc1ccc(NC(=O)/C=C/C(=O)O)c([N+](=O)[O-])c1`, the Tm shift activity was inactive: 0.044%.

For `Cc1ccc(S(=O)(=O)N(C)c2ccc(OC(=O)COc3ccccc3)cc2)cc1`, the Tm shift activity was inactive: 0.646%.

Consider `Cc1ccc2c(c1)c(CC(=O)Nc1ccc(C)c(F)c1)c(C(=O)O)n2C`, for which the Tm shift activity is inactive: 0.048%.

`CC(C)(C)[S@](=O)N1Cc2cc(C(=O)N[C@@H]3CCN(Cc4ccccc4)C3)nc(-c3cccc(-c4cccnc4)c3)c2[C@@H]1CCO`: the Tm shift activity is inactive: 0.169% [at 42 µM].

For `CC(C)Oc1ccc(C(=O)NC2CCN(Cc3ccccc3)CC2)cc1`, the Tm shift activity is inactive: 0.066%.

As for `COc1ccc(/C=N/NC(=O)c2cccc([N+](=O)[O-])c2)cc1OC`, the Tm shift activity was inactive: 0.04%.

In the case of `C[C@@H]1CN([C@H](C)CO)C(=O)Cc2cc(NC(=O)C3CC3)ccc2O[C@H]1CN(C)S(=O)(=O)c1cn(C)cn1`, the Tm shift activity was inactive: -0.141%.

Turning to `COc1ccccc1NS(=O)(=O)c1cccc(NC(=O)c2cc3ccccc3oc2=O)c1`, the Tm shift activity is inactive: -0.019%.

In the case of `Cc1cccc(S(=O)(=O)N2CCCCN3[C@@H](CO)[C@@H](c4ccc(C#C[C@H](C)O)cc4)[C@@H]3C2)c1`, the Tm shift activity is inactive: -0.175% [at 42 µM].

For `COc1ccc(S(=O)(=O)Nc2ccc3c(c2)C(=O)N([C@H](C)CO)C[C@H](C)[C@H](CN(C)CC2CC2)OCCCC[C@H](C)O3)cc1`, the Tm shift activity is inactive: -0.346%.

Regarding `CS(=O)(=O)N1CC2(C1)[C@@H](c1ccccc1)[C@@H](CO)N2Cc1ccc(F)cc1`, the Tm shift activity was inactive: -0.945% [at 42 µM].

For `COC(=O)C(C)Oc1cc(OC(C)C(=O)OC)c2c(C)c(Cl)c(=O)oc2c1` (configuration not stated), the Tm shift activity is inactive: -0.283%.

Turning to `COc1ccc(CCC(C)NC(=O)Cc2ccc(OC)c(OC)c2)c(OC)c1` (configuration not stated), the Tm shift activity was inactive: -0.077%.

For the compound `CC(C)NC(=O)N1C[C@@H]2[C@H](c3ccccc31)[C@H](CO)N2C(=O)c1ccccn1`, the Tm shift activity is inactive: -0.161% [at 42 µM].

`Cc1c(CCO)sc[n+]1CC(=O)OC12CC3CC(CC(C3)C1)C2`: the Tm shift activity was inactive: 0.081%.

With `C/C=C/c1ccccc1[C@@H]1[C@@H](C#N)N(C(C)=O)[C@@H]1CO`, the Tm shift activity was inactive: -0.133% [at 42 µM].

Take `COC(=O)C[C@@H]1CC[C@@H]2[C@@H](COc3ccc(NC(=O)c4ccc(F)c(F)c4)cc3C(=O)N2C)O1`: the Tm shift activity is inactive: 0.008%.

Take `C[C@@H]1CN([C@H](C)CO)C(=O)c2cc(N(C)C)ccc2O[C@@H]1CN(C)CC1CCCCC1`: the Tm shift activity is inactive: -0.113% [at 42 µM].

Turning to `CC1CC(CC(=O)NC(=S)Nc2ccccc2Cl)C(=O)O1` (configuration not stated), the Tm shift activity was inactive: -0.235%.

`Cc1ccc(NC(=O)CN(C)C(C)C(=O)Nc2ccc(S(=O)(=O)N3CCCC3)cc2)cc1` (configuration not stated): the Tm shift activity was inactive: -2.89%.

In the case of `CC(C)C#Cc1ccc([C@@H]2[C@H](CO)N3C(=O)CN(C(=O)C4CCCCC4)C[C@@H]23)cc1`, the Tm shift activity is inactive: -2.73%.

Regarding `O=C(N[C@H]1CC[C@@H](CCNS(=O)(=O)c2ccc(F)cc2)O[C@H]1CO)c1ccccn1`, the Tm shift activity was inactive: -0.151% [at 42 µM].

Regarding `Cc1nc2ccc(Br)cc2c(-c2ccccc2)c1C(=O)O`, the Tm shift activity was inactive: -0.524%.

For the compound `COCC(=O)N1C[C@@H]2[C@H](c3ccccc31)[C@H](CO)N2C(=O)c1ccccc1F`, the Tm shift activity was inactive: 0.006% [at 42 µM].

Consider `C=CCC1c2cccc(C(=O)O)c2C(=O)N1c1cccc(OC)c1` (configuration not stated), for which the Tm shift activity is inactive: 0.004%.

Consider `OC[C@@H]1[C@H](c2ccc(-c3cccnc3)cc2)[C@@H]2CN(Cc3ccccn3)CCCCN12`, for which the Tm shift activity is inactive: -0.247%.

For the compound `O=C(C[C@@H]1CC[C@H]2[C@@H](COC[C@@H](O)CN2Cc2cc(F)ccc2F)O1)NCc1ccc(F)cc1`, the Tm shift activity was inactive: -0.101% [at 42 µM].

With `O=C(NCC[C@H]1CC[C@H](NC(=O)C2CCOCC2)[C@@H](CO)O1)Nc1ccc(Cl)cc1`, the Tm shift activity was inactive: 0.172%.

As for `C[C@@H]1CN([C@H](C)CO)C(=O)c2cc(Br)cnc2O[C@@H]1CN(C)Cc1ccc(F)cc1`, the Tm shift activity is inactive: 19.5%.

As for `CC(C)C#Cc1ccc([C@@H]2[C@@H](CO)N3C(=O)CN(C(=O)C4CCCCC4)C[C@@H]23)cc1`, the Tm shift activity is inactive: -1.19%.

As for `C[C@H](CO)N1C[C@H](C)[C@@H](CN(C)C(=O)Nc2cccc3ccccc23)Oc2c(NC(=O)C3CC3)cccc2C1=O`, the Tm shift activity is inactive: -0.274%.

For `O=C(C[C@@H]1C[C@H]2c3cc(NC(=O)C4CCC4)ccc3O[C@H]2[C@@H](CO)O1)NCc1cc(F)ccc1F`, the Tm shift activity is inactive: 0.045% [at 42 µM].

Consider `CCc1ccc(NC(=O)COc2coc(CN3CCN(c4ccccc4)CC3)cc2=O)cc1`, for which the Tm shift activity was inactive: 0.11%.

For `OC[C@H]1[C@@H]2c3ccccc3NC[C@@H]2N1Cc1ccccc1Cl`, the Tm shift activity is inactive: -0.374% [at 42 µM].

As to `COc1ccc(NC(=O)N(C)C[C@H]2Oc3ccc(NS(=O)(=O)c4ccc(Cl)cc4)cc3C(=O)N([C@H](C)CO)C[C@H]2C)cc1`, the Tm shift activity is inactive: 0.094% [at 42 µM].

For the compound `OC[C@H]1[C@@H](c2ccc(-c3cccnc3)cc2)[C@H]2CN(Cc3ccccn3)CCCCN21`, the Tm shift activity is inactive: -0.026%.

As to `Cc1ccc(N(CCC#N)C(=O)COC(=O)c2cc(C)no2)cc1`, the Tm shift activity is inactive: -0.01%.

On to `Cc1ccc2c(c1)C1CN(C)CCC1N2S(=O)(=O)c1ccc(C(C)C)cc1` (configuration not stated), for which the Tm shift activity is inactive: -0.021%.

On to `O=C(NCC[C@@H]1CC[C@H](NC(=O)C2CCOCC2)[C@H](CO)O1)Nc1ccc(Cl)cc1`, for which the Tm shift activity is inactive: 0.002% [at 42 µM].

For the compound `Cc1[nH]c2ccccc2c1C(=O)C(=O)NCCOc1ccccc1`, the Tm shift activity is inactive: 0.288%.

In the case of `CCC1CCCCN1C(=O)CCNC(=O)Cn1cnc2ccccc2c1=O` (configuration not stated), the Tm shift activity was inactive: -0.124%.

With `NC(=O)c1cccnc1Nc1ccccc1F`, the Tm shift activity is inactive: 0.31% [at 10 µM].

Consider `CC(C)N(C[C@H]1[C@H](c2ccccc2)[C@@H](CO)N1S(C)(=O)=O)C(=O)CN(C)C`, for which the Tm shift activity was inactive: -0.02%.

For the compound `Cc1ccccc1C(=O)Nc1nnc(S(=O)(=O)N2CCCCC2)s1`, the Tm shift activity was inactive: -0.158%.

Take `COc1ccc(C(=O)N2C[C@H]3[C@@H](c4ccccc42)[C@@H](CO)N3C(=O)c2ccc(F)cc2)cc1`: the Tm shift activity is inactive: -0.083% [at 42 µM].

For the compound `C[C@H]1CN([C@@H](C)CO)C(=O)c2cc(NC(=O)CCC(F)(F)F)ccc2O[C@H]1CN(C)CC1CC1`, the Tm shift activity was inactive: -0.033% [at 10 µM].

Consider `Cc1ccc(S(=O)(=O)NCc2cccnc2)cc1C`, for which the Tm shift activity is inactive: -0.415%.

As to `C[C@H]1CN([C@@H](C)CO)C(=O)c2cc(NS(=O)(=O)c3ccc(Cl)cc3)ccc2O[C@@H]1CN(C)C(=O)Nc1ccc2c(c1)OCO2`, the Tm shift activity was inactive: 0.029% [at 42 µM].

Take `COCCN1CCN(Cc2nc(Cc3ccc(OC)c(OC)c3)no2)CC1`: the Tm shift activity is inactive: -0.027%.
